Laboratory results reported in patent US6248520, “Nucleic acid molecules encoding nuclear hormone receptor coactivators and uses thereof” (The Rockefeller University, dated 2001).

Target: human thyroid hormone receptor α (TRα-1), intact (human, UniProt P10827-2)
Experiment: GST pull-down, 1.5 µg immobilised GST, 35S-labelled TRα
Procedure: Proteins were synthesized and labeled with ^35S-methionine in a coupled transcription-translation system (TNT kit; Promega). 1.5 μg of immobilized GST-fusion protein and 2 μl of ^35S-labeled input proteins were used in GST pull-down assays. For coimmunoprecipitation (7), 2 μl of anti-FLAG M2 affinity gel (Kodak) and 3 μl of ^35S-labeled input proteins were used. For Far Western analyses, 500 ng of purified TR-TRAP complex was resolved by SDS-PAGE and transferred onto a nitrocellulose membrane. The blots were probed with in vitro translated, ^35S-labeled human TRα-1 or TRα-1 C-terminus (residues 122–410) in the presence and absence of 10^-7 M T_3.
To test which TRAPs interact with TRα, the entire complement of TRAPs (in the natural TR-TRAP complex) were initially probed by a Far Western analysis. Intact TRα and a C-terminal fragment (TRα-C, residues 122–410) containing the ligand-binding and AF-2 domains interacted with TRAP220, but not with the other TRAPs, in a ligand (T_3)-dependent manner (FIG. 7A). This interaction was confirmed by co-immunoprecipitation of in vitro translated, ^35S-labeled recombinant proteins. […] To analyze domains in TRAP220 involved in receptor interactions, regions containing the first LXXLL motif (TRAP220/1, residues 405–644) and the second LXXLL motif (TRAP220/2, residues 622–701) were expressed as GST fusion proteins. […]

B1: GST alone (other)
chain: not shown
binding result: no binding
